The antibiotic and cytotoxicity screens of Wong et al. (2023)
This is one part of the list.

Key:
[1] = system: HSkMC (human skeletal muscle cells); test: cytotoxicity call (relative viability < 0.9); details: 10 µM
[2] = system: HepG2; test: cytotoxicity call (relative viability < 0.9); details: 10 µM
[3] = system: S. aureus RN4220; test: growth inhibition call (relative growth <= 0.2); details: 50 µM

SMILES	cytotoxicity call [1]	cytotoxicity call [2]	growth inhibition call [3]
C[C@@H]1CN([C@@H](C)CO)S(=O)(=O)c2ccc(Br)cc2O[C@@H]1CN(C)CC1CCOCC1	inactive	inactive	inactive
CO[C@@H]1CN(C)C(=O)c2ccc(NC(=O)C3CCOCC3)cc2OC[C@@H](C)N(CC2CCOCC2)C[C@H]1C	inactive	inactive	inactive
C[C@H]1CN([C@H]2C[C@@H](O)[C@@H](CO)O2)C(=O)NC1=O	inactive	inactive	inactive
COc1ccc(NC(=O)Nc2ccc3c(c2)C(=O)N([C@@H](C)CO)C[C@@H](C)[C@H](CN(C)S(=O)(=O)c2ccc(OC)cc2)OCCCC[C@@H](C)O3)cc1	inactive	inactive	inactive
COc1ccc(CN(C)C[C@H]2OCCCC[C@@H](C)Oc3ccc(NC(=O)CCC(F)(F)F)cc3C(=O)N([C@@H](C)CO)C[C@H]2C)cc1	inactive	inactive	inactive
C[C@H]1CN([C@@H](C)CO)C(=O)c2cccc(NC(=O)c3cnccn3)c2O[C@H]1CN(C)S(=O)(=O)c1cn(C)cn1	inactive	inactive	inactive
C[C@@H]1CN([C@H](C)CO)C(=O)c2cccc(NC(=O)Nc3ccc(F)cc3)c2O[C@H]1CN(C)Cc1ccc(Cl)c(Cl)c1	active	inactive	inactive
O=C(C[C@H]1CC[C@H]2[C@@H](COC[C@H](O)CN2C(=O)Nc2cccc(Cl)c2)O1)NCc1ccccc1F	inactive	inactive	inactive
COc1ccc(NC(=O)Nc2ccc3c(c2)C(=O)N([C@@H](C)CO)C[C@@H](C)[C@@H](CN(C)C(=O)C2CCCCC2)OCCCC[C@@H](C)O3)cc1	inactive	inactive	inactive
COCC(=O)N1CCCc2c(C#N)nn(C)c2C1	inactive	inactive	inactive
C[C@@H]1CN([C@@H](C)CO)C(=O)c2cc(NS(=O)(=O)c3ccc(F)cc3)ccc2O[C@@H](C)CCCCO[C@H]1CN(C)C(=O)C1CCCCC1	inactive	inactive	inactive
